Drawing on the RNAGym collection of RNA variant scans (doi:10.1093/nar/gkz1192), this text covers self-cleavage for 34 variants.

Read counts are not given, so values of variants with three or more changes are uncertain.

The labels stand for the following.
B1: CPEB3 Ribozyme (parent)
chain: UAACAGGGGGCCACAGCAGAAGCGUUCACGUCGCAGCCCCUGUCAGAUUCUGGUGAAUCUGCGAAUUCUGCUGUAUAUCUC

The variants in the series derive from B1. As to the kind of experiment: self-cleavage, relative activity (ratio to wild type); higher = more cleavage; in vitro, sequencing. Summed up: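 Barcoded CPEB3 ribozyme mutants, produced by rounds of error-prone PCR, self-cleaved while being transcribed with T7 RNA polymerase for 5 hours at 37°C and during a subsequent 15 min DNase I step before EDTA was added. Sequencing of template-switched cDNA on Illumina gave cleaved and total reads, and DNA sequencing assigned barcodes to variants. Each variant's relative activity is its cleaved/total read fraction divided by the unmutated ribozyme's fraction, averaged across three batches. A variant needed a minimum of 5 reads.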
Turning to UAACAGGGGGCCACAGCAGAAGCGUUCACGUCGCAGCCCCAGUCAGAUUCCGGUGAGUCUGCGAAUUCCGCUGUAUAUCUC [U41A U51C A57G U69C], the self-cleavage was 0.21.
Turning to UAACAGGGGGCCACAGCAGAAGCGUUCACGUCGCAGCCCCAGCCAGAUUCUGGUGAAUCUGCGAAUUCUGCUGUAUAUCCC [U41A U43C U80C], the self-cleavage amounted to 0.43.
For the variant UAACAGGGGGCCACAGCAGAAGCGUUCACGUCGCAGCCCCCGUCUGAUUCUGGUGAAUCUGCGAAUUCUGCUGUAUAUCAC [U41C A45U U80A], the self-cleavage turned out to be 0.64.
Under UAACAGGGGGCCACAGCAGAAGCGUUCACGUCGCAGCCCCAGUCAGAUUCUGGUGAAUCUGCGAAUCCUGCUGUAUACCUC [U41A U67C U78C] stands 0.17; under UAACAGGGGGCCACAGCAGAAGCGUUCACGUCGCAGCCCCAGUCAGAUCCUGGCGAAUCUGCGGAUUCUGCUGUAUAUCCC [U41A U49C U54C A64G U80C], 0.11.
Under UAACAGGGGGCCACAGCAGAAGCGUUCACGUCGCAGCCCCAGUCAGAUCCCGGUGAAUCUGCGAAUUCUGCUGUACAACUC [U41A U49C U51C U76C U78A] stands 0.04.
The value for UAACAGGGGGCCACAGCAGAAGCGUUCACGUCGCAGCCCCAGUCAGAUUCUGGUGAAUCUGCAUAUUCUGCUGUAUAUCUC [U41A G63A A64U] was 0.13.
As for UAACAGGGGGCCACAGCAGAAGCGUUCACGUCGCAGCCCCCGUCAGGUUCUGGUGAAUCUGCGAAUUCCGCUGUAUAUCUC [U41C A47G U69C], the self-cleavage was determined as 0.65.
Turning to UAACAGGGGGCCACAGCAGAAGCGUUCACGUCGCAGCCCCAGUCAGAUUCUGGUCAGUCUGCGGAUUCUGCUGUAUAUCUC [U41A G55C A57G A64G], the self-cleavage was determined as 0.06.
Turning to UAACAGGGGGCCACAGCAGAAGCGUUCACGUCGCAGCCCCAGUCAGAUUCUGGCGAAUCUGCGAAUACUGCUGUAUAUCUC [U41A U54C U67A], the self-cleavage was 0.47.
Under UAACAGGGGGCCACAGCAGAAGCGUUCACGUCGCAGCCCCCGUCAGAUUCUGGUGAAUCUGCGAUCCCUGCUGCAUAUCAC [U41C A65U U66C U67C U74C U80A] stands 0.37.
With UAACAGGGGGCCACAGCAGAAGCGUUCACGUCGCAGCCCCCGUCAGAUUCUGGUGAAUCUGCGUAUUCUGCCGUAUAACUC [U41C A64U U72C U78A], the self-cleavage worked out at 0.64.
The value for UAACAGGGGGCCACAGCAGAAGCGUUCACGUCGCAGCCCCAACUAGAUUCUGGUGAAUCUGCGAAUUCAGCUGUAUAUCUC [U41A G42A U43C C44U U69A] was 0.26; that for UAACAGGGGGCCACAGCAGAAGCGUUCACGUCGCAGCCCCCGUCGGGUUCUGGUGAAUCUGCGAAUUCUGCUGUAUAUCUC [U41C A45G A47G] was 0.51; that for UAACAGGGGGCCACAGCAGAAGCGUUCACGUCGCAGCCCCAGUCAGAUUCUGGUGAAUCUGAGAAUUCAGCCGUAUAUCUC [U41A C62A U69A U72C] was 0.13.
The value for UAACAGGGGGCCACAGCAGAAGCGUUCACGUCGCAGCCCCCGUCAGAUUCUGGUGAAUCUGCGUAUUCAGCUGUAUAUCUC [U41C A64U U69A] was 0.32; that for UAACAGGGGGCCACAGCAGAAGCGUUCACGUCGCAGCCCCAGUCAGAUCCUGGUGAAUCUGCGAAUUCUACUGUAUAUCUC [U41A U49C G70A] was 0.08; that for UAACAGGGGGCCACAGCAGAAGCGUUCACGUCGCAGCCCCAGUCAGAUUCUGGUGAAUCUGCGAAUUCUACUGAAUAUCUC [U41A G70A U74A] was 0.16.
Under UAACAGGGGGCCACAGCAGAAGCGUUCACGUCGCAGCCCCAGUCAUAUUCUGGUGAAUAUGCGAAUUCUGCUGUAUAUCUC [U41A G46U C59A] stands 0.37.
Take UAACAGGGGGCCACAGCAGAAGCGUUCACGUCGCAGCCCCAGUCAGAUUCUGGUGAAUCUGCGAAUUCUUCCGUAUAUCUC [U41A G70U U72C]: the self-cleavage worked out at 0.1.
Consider UAACAGGGGGCCACAGCAGAAGCGUUCACGUCGCAGCCCCAGUCAGAUUCUGGUGAAUCUGCGAAUUCCGCUGUAUACCUC [U41A U69C U78C], for which the self-cleavage was determined as 0.17.
Consider UAACAGGGGGCCACAGCAGAAGCGUUCACGUCGCAGCCCCAGCCAGAUUCUGGUGAGUCUGCGAAUUCUGCUGUAUAUCUC [U41A U43C A57G], for which the self-cleavage stood at 0.1.
The value for UAACAGGGGGCCACAGCAGAAGCGUUCACGUCGCAGCCCCAGCCAGAUUCCGGUGAAUCUGGGAACUCUGCUGUAGAUCUC [U41A U43C U51C C62G U66C U76G] was 0.14; that for UAACAGGGGGCCACAGCAGAAGCGUUCACGUCGCAGCCCCAGUCAGAUUCAGGUGAAUCUGCGGAUUCUGCUGUACUUCUC [U41A U51A A64G U76C A77U] was 0.18.
As for UAACAGGGGGCCACAGCAGAAGCGUUCACGUCGCAGCCCCAGUCAGAUUCAGGUGAAUCUGCGAAUUCUGUUGUAUAUCUC [U41A U51A C71U], the self-cleavage came to 0.1.
Under UAACAGGGGGCCACAGCAGAAGCGUUCACGUCGCAGCCCCAGUCACAUUCUGGCGAAUCUGCGAAUUCUGCUGUGUAUCUC [U41A G46C U54C A75G] stands 0.06; under UAACAGGGGGCCACAGCAGAAGCGUUCACGUCGCAGCCCCAGUCAGAUUAUGGUGAAUCUGCGUAUUCUGCUGUAUAUCUC [U41A C50A A64U], 0.12.
Under UAACAGGGGGCCACAGCAGAAGCGUUCACGUCGCAGCCCCAGUCAGAUUCUGGUGAACCUGCGAAUUCUGCAGUAUAUCUC [U41A U58C U72A] stands 0.05; under UAACAGGGGGCCACAGCAGAAGCGUUCACGUCGCAGCCCCAGCCUGAUUCUGGUGAAUCUGCGAAUUCUGCUGUAUAUCCC [U41A U43C A45U U80C], 0.09.
The value for UAACAGGGGGCCACAGCAGAAGCGUUCACGUCGCAGCCCCCGUCAGAUUCUGGUGAUUCUGCGAAUUCUGCUGAAUAUCUC [U41C A57U U74A] was 1.18; that for UAACAGGGGGCCACAGCAGAAGCGUUCACGUCGCAGCCCCCGUCAGAUUCUGGUGUAUCUGCGAACUCUGCUGUAUAUCUC [U41C A56U U66C] was 0.47; that for UAACAGGGGGCCACAGCAGAAGCGUUCACGUCGCAGCCCCAGUCAGAUCCUGGUGAAUCUGCGAAUUCUGCAGUAAAUCUC [U41A U49C U72A U76A] was 0.04.
UAACAGGGGGCCACAGCAGAAGCGUUCACGUCGCAGCCCCCGUCGGAUUCUGGUGAAUCUGCGAAUUCUGCUGUACUUCUC [U41C A45G U76C A77U]: the self-cleavage was 1.08.
The value for UAACAGGGGGCCACAGCAGAAGCGUUCACGUCGCAGCCCCAGUCAGAUUCUGGUGAAACUGCGAAUUCAGCUGUAAAUCUC [U41A U58A U69A U76A] was 0.07.
